Results are given in words; binding and its absence hold for the method and conditions named. In cells and extracts the contact can be indirect. Some entries that bind do so weakly or less than the wild type. Each block holds one substance with its values, some of them ahead of it.
Experiments:
HA-tagged D2LR [1] = molecular target: HA-tagged D2LR (UniProt P14416); assay: condition: only lysates of cells transfected with the individual receptors alone, mixed after lysis; co-IP; control: lysates of cells transfected with the individual receptors alone were mixed and processed as per the co-IP protocol
FLAG-D2SR = FLAG-D2SR (UniProt P14416); assay: co-IP; HEK 293T cells cotransfected with HA-D2LR (or FLAG-D2SR) and MOR-YFP; RIPA lysates (250 mM NaCl, 50 mM Tris/HCl pH 7.5, 1% NP-40, 0.1% SDS, 0.5% deoxycholic acid); IP with mouse anti-HA or anti-FLAG M2 and Protein A Trisacryl beads at 4 °C; blot with anti-GFP
HA-tagged D2LR [2] = molecular target: HA-tagged D2LR (UniProt P14416); assay: as above
D2LR-RLuc = D2LR-RLuc (UniProt P14416); assay: FRET or BRET; saturation BRET1 in living HEK 293T cells; fixed amount of RLuc donor plasmid, increasing amounts of YFP acceptor plasmid; 5 µM h-coelenterazine; ratio 530/480 nm, corrected for donor alone
D2LR-mCherry = D2LR-mCherry (UniProt P14416); assay: FRET or BRET; FRET in living HeLa cells in a plate reader; MOR-YFP donor, mCherry acceptor; ratio of donor-acceptor channel to donor-donor channel
MOR-RLuc = MOR-RLuc (UniProt P35372); assay: FRET or BRET; saturation BRET1 in living HEK 293T cells; fixed amount of RLuc donor plasmid, increasing amounts of YFP acceptor plasmid; 5 µM h-coelenterazine; ratio 530/480 nm, corrected for donor alone

Protein sequences, listed by entry. Tags and fused reporters are not part of them. Lines headed by an entry give the natural chain unless they say otherwise; changes in a name come on top. Chains listed by the source or under a name are the forms on record and can include a tag or linker.
UniProt P14416: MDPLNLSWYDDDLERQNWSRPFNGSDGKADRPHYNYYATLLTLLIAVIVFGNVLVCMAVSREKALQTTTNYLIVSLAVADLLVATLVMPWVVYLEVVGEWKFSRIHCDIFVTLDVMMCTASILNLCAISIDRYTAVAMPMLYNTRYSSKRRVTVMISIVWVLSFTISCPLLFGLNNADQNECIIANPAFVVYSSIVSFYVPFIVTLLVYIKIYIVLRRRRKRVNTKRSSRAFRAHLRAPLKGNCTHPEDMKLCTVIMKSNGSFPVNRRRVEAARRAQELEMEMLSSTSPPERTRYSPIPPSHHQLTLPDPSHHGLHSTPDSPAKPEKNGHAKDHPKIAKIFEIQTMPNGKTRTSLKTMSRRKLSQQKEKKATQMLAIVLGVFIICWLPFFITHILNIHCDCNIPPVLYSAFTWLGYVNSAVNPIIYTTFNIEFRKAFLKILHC
FLAG-D2SR (P14416, form named): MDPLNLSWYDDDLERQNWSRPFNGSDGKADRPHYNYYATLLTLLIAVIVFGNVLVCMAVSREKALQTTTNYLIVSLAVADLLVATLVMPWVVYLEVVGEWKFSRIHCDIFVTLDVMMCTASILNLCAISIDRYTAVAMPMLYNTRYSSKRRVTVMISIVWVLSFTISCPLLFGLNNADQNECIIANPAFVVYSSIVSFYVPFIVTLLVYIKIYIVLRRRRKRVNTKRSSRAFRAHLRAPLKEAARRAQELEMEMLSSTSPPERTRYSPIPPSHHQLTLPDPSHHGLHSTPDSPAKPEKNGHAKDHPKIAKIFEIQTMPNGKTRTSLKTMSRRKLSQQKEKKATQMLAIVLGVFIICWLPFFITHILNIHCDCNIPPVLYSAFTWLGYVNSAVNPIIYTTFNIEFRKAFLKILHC
UniProt P35372: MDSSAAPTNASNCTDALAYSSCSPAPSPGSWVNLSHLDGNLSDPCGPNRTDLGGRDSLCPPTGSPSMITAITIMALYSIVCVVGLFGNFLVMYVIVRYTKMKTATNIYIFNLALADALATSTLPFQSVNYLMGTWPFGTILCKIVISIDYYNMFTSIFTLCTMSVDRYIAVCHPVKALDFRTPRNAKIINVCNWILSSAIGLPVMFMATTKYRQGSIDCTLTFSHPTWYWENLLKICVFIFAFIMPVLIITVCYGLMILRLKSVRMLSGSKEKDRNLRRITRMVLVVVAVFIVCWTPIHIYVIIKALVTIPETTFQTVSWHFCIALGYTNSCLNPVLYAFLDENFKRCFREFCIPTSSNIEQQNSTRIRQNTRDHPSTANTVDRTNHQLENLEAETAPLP

binding (HA-tagged D2LR [1]): no binding
binding (FLAG-D2SR): binds
binding (HA-tagged D2LR [2]): binds
binding (D2LR-RLuc): binds
Substance: MOR-YFP (in HEK 293T cells) (from UniProt P35372 1-400) (receptor)

binding (D2LR-mCherry): binds
Substance: MOR-YFP (in HeLa cells) (from UniProt P35372 1-400) (receptor)

binding (MOR-RLuc): binds
Substance: D2LR-YFP (from UniProt P14416 1-443) (receptor)
